Read counts are not given, so values of variants with three or more changes are uncertain.
B1: CPEB3 Ribozyme (parent)
chain: UAACAGGGGGCCACAGCAGAAGCGUUCACGUCGCAGCCCCUGUCAGAUUCUGGUGAAUCUGCGAAUUCUGCUGUAUAUCUC

Variants of: B1
Test: self-cleavage, relative activity (ratio to wild type); higher = more cleavage; in vitro, sequencing
Method in brief: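 After error-prone PCR and barcoding, CPEB3 ribozyme mutant libraries were transcribed with T7 RNA polymerase at 37°C for 5 hours, then given 15 min with DNase I before an EDTA stop, and they cleaved during both steps. Reverse transcription with template switching preceded Illumina sequencing. Relative activity divides a variant's cleaved/total read fraction by the unmutated ribozyme's. At least 5 reads were required per variant, and three batches were averaged.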

Variant | self-cleavage
A15G A18G G33A U78A | 0.31
A15G A18G G33C | 0.13
A15G A18G G36U C40U U54C A64G U69A | 0.07
A15G A18G U25C G33C C50A U72C | 0.04
A15G A18G U25C U31C A64U | 0.35
A15G A18G U26A A28G U41C | 0.39
A15G A18G U26A U74G | 0.37
A15G A18G U26C U41A | 0.06
A15G A18G U31A | 0.45
A15G A18G U31C U80C | 0.38
A15G A18G U41C | 0.4
A15G A18G U41C A47U U66C C71U | 0.17
A15G A18G U41C U51C A56G U69A | 0.12
A15G A18G U43A A45G A64U U74C U80C | 0.13
A15G A18G U48A C50U | 0.08
A15G A18G U48C A56G U67C U69C | 0.21
A15G A18G U48C U49C A64G | 0.07
A15G A18G U48C U69C U76G | 0.16
A15G A18G U49A | 0.21
A15G A18G U49C U72C C79U | 0.41
A15G A18G U51C | 0.1
A15G A18G U54C | 0.29
A15G A18G U72C | 0.77
A15G A18G U78A | 0.09

Variant | self-cleavage
A15G A18U A20G U25C U58C | 0.45
A15G A18U A20G U41C U72A | 0.09
A15G A18U A20G U54C | 0.3
A15G A18U A21C A45U U66C | 0.02
A15G A18U A28C A35G C40A U74C | 0.05
A15G A18U A35G C37A A56G G61A U69C | 0.05
A15G A18U A35G U41C U72C | 0.24
A15G A18U A56G | 0.36
A15G A18U A64G | 0.5
A15G A18U A65G U69G U80C | 0.17
A15G A18U C29A A35G A75G | 0.25
A15G A18U C38U | 0.41
A15G A18U C40U A57U U66A | 0.19
A15G A18U C59U U78C | 0.48
A15G A18U G19A | 0.28
A15G A18U G19C C34U U49C U58C | 0.08
A15G A18U G33A U49A U58C U67C U74A | 0.03
A15G A18U U25C | 0.07
A15G A18U U25C A35U U41C A47G A75G | 0.06
A15G A18U U26A U48A U66C | 0.04
A15G A18U U26C | 0.2
A15G A18U U26C C62U G73A | 0.42
A15G A18U U26C U43C G52A U69C | 0.26
A15G A18U U26C U54C U66C A75G | 0.08

Variant | self-cleavage
A15G A18U U41A | 0.2
A15G A18U U41A U80C | 0.37
A15G A18U U43A A47G U67A U80A | 0.1
A15G A18U U49A A64U | 0.1
A15G A18U U49C U78C | 0.06
A15G A18U U51C U54C U69C | 0.35
A15G A18U U54A | 0.4
A15G A18U U66C | 0.16
A15G A18U U69C U80C | 0.22
A15G A18U U80C | 0.23
A15G A20C A35U A64U U66C U80A | 0.07
A15G A20C U74G | 0.38
A15G A20G A21C A28C | 0.04
A15G A20G A21G U41A U49C | 0.06
A15G A20G A21G U54C U78A | 0.36
A15G A20G A21G U60A | 0.42
A15G A20G A28C U51C | 0.18
A15G A20G A28G | 0.5
A15G A20G A35G A57G U58C U72C | 0.08
A15G A20G A35U U41C | 0.39
A15G A20G A45G U49C A57G U80A | 0.07
A15G A20G A56C U60A U67A | 0.09
A15G A20G A56G | 0.23
A15G A20G A57G C71U | 0.19

Variant | self-cleavage
A15G A20G A57U A64G | 0.18
A15G A20G C23A C40U U41A | 0.38
A15G A20G C29U U54C A64U | 0.17
A15G A20G C37U U78A | 0.33
A15G A20G C39U U48A U51C | 0.06
A15G A20G C40U U48C A64G C71U | 0.05
A15G A20G C62U A77G U78A | 0.16
A15G A20G C79A | 0.64
A15G A20G G24A G30U | 0.4
A15G A20G G52A U67A | 0.36
A15G A20G G52U U58G A75U U78C | 0.16
A15G A20G U25C U31A U48C U74A | 0.55
A15G A20G U25C U31G | 0
A15G A20G U25C U41A | 0.34
A15G A20G U25C U66C | 0.08
A15G A20G U26A A45U U60C | 0.09
A15G A20G U26A G36A G52A U60C | 0.06
A15G A20G U26A U41C U43A U48C | 0.05
A15G A20G U26A U41C U60C | 0
A15G A20G U26A U51A C68U U72C | 0.49
A15G A20G U26C A56G U78C | 0.11
A15G A20G U26C U69A | 0.05
A15G A20G U31A G55A | 0.5
A15G A20G U31C | 0.51

Variant | self-cleavage
A15G A20G U31C U66C U78G | 0.15
A15G A20G U41A A47G U72A A77G | 0.09
A15G A20G U41C U74C | 0.9
A15G A20G U41G U69C | 0.33
A15G A20G U43A A45G U60A | 0.13
A15G A20G U43A U49C A57U | 0.14
A15G A20G U48C U60C | 0.31
A15G A20G U51A | 0.53
A15G A20G U51A G52A U58A A65G | 0.34
A15G A20G U58C U72G | 0.11
A15G A20G U60C G63A | 0.14
A15G A20G U80G | 0.85
A15G A20U A21G U58C U60A | 0.2
A15G A20U A21U U26C A45G A56G A65G | 0.14
A15G A20U A35G U51A U54C U72G | 0.1
A15G A20U A35U | 0.14
A15G A20U A47G U60C | 0.1
A15G A20U C34A U48C G53A | 0.06
A15G A20U C37U A57C U60C | 0.14
A15G A20U C79A | 0.8
A15G A20U G24U U43A U60C C62U A64U | 0.04
A15G A20U G30U U80C | 0.2
A15G A20U G33A | 0.18
A15G A20U G53A U74C | 0.19

Variant | self-cleavage
A15G A20U U26A U41C U48C G63A | 0.06
A15G A20U U26G A56G U66A | 0.08
A15G A20U U41A U49G U51C | 0.39
A15G A20U U41C U72A | 0.24
A15G A20U U41C U76C | 0.22
A15G A20U U43A | 0.25
A15G A20U U54C U69C U80C | 0.16
A15G A20U U60C | 0.29
A15G A20U U66A U80A | 0.19
A15G A21C A47G U54C G63A U69A | 0.08
A15G A21C A56G U69A | 0.28
A15G A21C C23A U41C | 0.37
A15G A21C C39U U43A U80C | 0.07
A15G A21C U25C A28U A45G | 0.4
A15G A21C U25C U76C | 0.26
A15G A21C U43A U49A | 0.29
A15G A21C U43G A45G U60A | 0.09
A15G A21G A28C U60C U80C | 0.33
A15G A21G A28G | 0.53
A15G A21G A28G A57G U60A | 0.1
A15G A21G A28G G30C G55C | 0.08
A15G A21G A28G G33A U49C U51A U72C | 0.04
A15G A21G A35G A45U U69A A75G | 0.24
A15G A21G A35G C40U A56G | 0.13

Variant | self-cleavage
A15G A21G A35G U51A | 0.22
A15G A21G A35U U41A A56U | 0.16
A15G A21G A45C | 0.37
A15G A21G A45G | 0.43
A15G A21G A56G A65U | 0.17
A15G A21G A56U | 0.14
A15G A21G A57G | 0.22
A15G A21G A57G U76C U80A | 0.2
A15G A21G A65G C68U G70A U72A | 0.18
A15G A21G A65G U69C | 0.17
A15G A21G A77U | 0.67
A15G A21G C23U A45G U51C | 0.06
A15G A21G C29U A65G U72C A77C | 0.05
A15G A21G C32U C38U A64U | 0.06
A15G A21G C32U U41C U67C | 0.14
A15G A21G C34U | 0.31
A15G A21G C34U U80C | 0.42
A15G A21G C37U A45G U51C U54C A64G | 0
A15G A21G C38A U43A U69G A77C | 0.05
A15G A21G C38G U69C | 0.17
A15G A21G C39G | 0.09
A15G A21G C40U U54A | 0.44
A15G A21G C62U A65U | 0.12

Reference: the RNAGym collection of RNA variant scans (doi:10.1093/nar/gkz1192)
